Results as given in PubChem BioAssay AID686979 (National Center for Advancing Translational Sciences (NCATS), 2013).
In all, about 420,000 compounds went through this assay and about 50,000 (12%) were called active. The inconclusive results got no clear call from the source; some entries with a clear call stand among them for comparison. Calls follow the shape of the dose curve; as a rule, active = well fitted inhibition curve with a large enough effect; inconclusive = small, poorly fitted or top-dose-only effect; inactive = flat fitted curve, though single readings scatter. No potency is given beside an inconclusive call; the fits are too rough.

Assay: qHTS for Inhibitors of human tyrosyl-DNA phosphodiesterase 1 (TDP1): qHTS in cells in presence of CPT; also: nearly all actives have a fitted effect of over 55% in size
Conditions: chicken DT40 Tdp1-/-;hTDP1 cells + 20 nM CPT, ATP luminescence, 48 h; activity change, negative = growth inhibition: at 46.2 µM (top of the series)
Summary of the method: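 Chicken DT40 Tdp1-/- cells complemented with human TDP1, 400 cells/well, exposed to compounds plus 20 nM camptothecin for at least 48 h at 37 C; viability read as ATP content by CellTiter-Glo luminescence.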
% is scaled to controls: 0 for no effect and ±100 for the full control effect; potency is read from the fitted curve at half-maximal effect; tags tell the direction and shape of the fitted curve.

Structure (SMILES)	Potency	activity change, negative = growth inhibition
CC(C)Cc1cc(C(=O)N(C)C2CCCN(Cc3ccccc3F)C2)n(C)n1 (stereo unspecified)	inconclusive [inhibitor, single point]	
CC(=O)c1c(N2CCC(C(N)=O)CC2)nc(=S)n(-c2ccccc2)c1C	inactive	
CSCCC(NC(=O)c1ccccc1)C(=O)N/N=C(\C)Cc1ccccc1 (stereo unspecified)	inactive	
COc1ccc(Br)cc1CNC(=O)CCCn1c(=O)c2cccn2c2cccnc21	inconclusive [inhibitor, single point]	
Cc1cccc(CC(Cc2nc3ccccc3[nH]2)c2nc3ccccc3[nH]2)c1 (stereo unspecified)	active: 16.4 µM	
O=c1c2ccccc2nc(/C=C/c2ccc([N+](=O)[O-])cc2)n1CCCO	inconclusive [inhibitor, single point]	
CCN(CC)CCCNc1oc(/C=C/c2ccccc2)nc1C#N	inconclusive [inhibitor, partial curve, poor fit]	
C=CCNC(=O)CN1C2CCCC1CC(NC(=O)c1ccccc1C)C2 (stereo unspecified)	inconclusive [inhibitor, single point]	
COc1ccccc1CNC(=O)c1cc2sccc2n1Cc1ccc(F)cc1	active: 20.6 µM	
CCOC(=O)Cn1c(=O)c2c(nc(N3CCCCC3)n2Cc2ccccc2)n(C)c1=O	active: 20.6 µM	
Cc1cccc(N2CCN(C(=O)c3ccc4ncsc4c3)CC2)c1C	active: 2.06 µM	
COc1ccncc1-c1ccc(C2=CC(=O)CC(C)(C)C2=O)cc1	inconclusive [inhibitor, single point]	
COc1cccc2cc(C(=O)C3=C(O)C(=O)N(CCN4CCOCC4)C3c3ccc(C(C)(C)C)cc3)oc12 (stereo unspecified)	inconclusive [inhibitor, single point]	
CN=C(NC#N)NCCSCc1nc[nH]c1C	inactive	
C[C@H](CO)N1C[C@H](C)[C@@H](CN(C)C(=O)Nc2ccc(C(F)(F)F)cc2)Oc2ccc(NS(=O)(=O)c3cn(C)cn3)cc2C1=O	inactive	
Cc1ccc(C)c(NS(=O)(=O)c2ccc(-c3cnc(C4CC4)o3)cc2)c1	active: 0.0058 µM	
O=C(Cn1ncc2c3ccccc3n(Cc3ccccc3)c2c1=O)N1CCCCCC1	inconclusive [inhibitor, single point]	
O=C(NC(c1ccccc1)c1ccccc1)C1CCCO1 (stereo unspecified)	inactive	
O=C(CN1CCN(c2nc(-c3ccccc3)cs2)CC1)Nc1ccc2c(c1)OCO2	inconclusive [inhibitor, single point]	
O=[N+]([O-])c1ccc2c(OCc3nnc(-c4ccccc4Br)o3)ncnc2c1	inconclusive [inhibitor, single point]	
COCCCn1c(SCc2ccccc2F)nc2c(sc3ccccc32)c1=O	inconclusive [inhibitor, partial curve]	
CCOC(=O)c1c(NC(=O)C2CCCO2)sc(C)c1C (stereo unspecified)	inconclusive [inhibitor, single point]	
O=C(CSc1nc2ccccc2c(=O)n1-c1ccccc1F)Nc1ccc2c(c1)CCC2	inconclusive [inhibitor, single point]	
O=S1(=O)CCOCCCN1Cc1cccc(Cl)c1	inactive	

Structure (SMILES)	Potency	activity change, negative = growth inhibition
Cc1ccc(Oc2nc(-c3cccnc3)nc3ccccc23)c([N+](=O)[O-])n1	inconclusive [inhibitor, single point]	
COc1ccccc1NC(=O)Cn1c(=O)n(-c2ccccc2Cl)c(=O)c2sc3ccccc3c21	inconclusive [inhibitor, single point]	
COc1ccc(S(=O)(=O)N2C[C@H]3CON(C)[C@H]3C[C@H]2c2ccc(-c3cccc(F)c3)cc2)cc1	inactive	
CCc1cccc(NC(=O)Cn2c(C(=O)OC)cc3occc32)c1	inactive	
COc1ccc(NC(=O)c2ccc(-n3nc(C)cc3C)cc2)cc1OC	inconclusive [inhibitor, single point]	
COc1ccc(-n2nc(C(=O)NCC(=O)NC3CCCCCC3)c3ccccc3c2=O)cc1OC	inactive	
Cc1cc(C)cc(Oc2nc3c(C)cccn3c(=O)c2/C=C(\C#N)C(=O)NC2CCS(=O)(=O)C2)c1 (stereo unspecified)	active: 16.4 µM	
COC(=O)N/N=C/c1cc(Cl)cc(Cl)c1OCc1ccccc1F	inconclusive [inhibitor, partial curve]	
CCc1cc(C(=O)N2CCN(c3ccccc3OC)CC2)sc1C	inconclusive [inhibitor, single point]	
COc1cc(NC(=O)C2CCCN(S(=O)(=O)c3ccc4c(c3)oc(=O)n4C)C2)cc(OC)c1 (stereo unspecified)	inconclusive [inhibitor, partial curve]	
CCN(CC)C(=O)C1=C(C)N(Cc2ccccc2)C(=O)C(CC(=O)NCc2cccs2)C1 (stereo unspecified)	inconclusive [inhibitor, single point]	
CSCCC(NC(=O)c1ccccc1Br)C(=O)NNC(=O)c1ccco1 (stereo unspecified)	inconclusive [inhibitor, single point]	
COc1ccc(-c2noc(C(C)n3nc(C)c([N+](=O)[O-])c3C)n2)cc1OC (stereo unspecified)	inconclusive [inhibitor, single point]	
COc1cc(OC)cc(-c2nnc(SCc3c(F)cccc3Cl)o2)c1	inconclusive [inhibitor, single point]	
COc1ccc(/C=C2\SC(=O)N(CCC(=O)N3CCCCC3)C2=O)cc1OC	inactive	
O=C(c1cc[n+]([O-])cc1)N1CCc2c([nH]c3ccccc23)C1c1ccccc1Cl (stereo unspecified)	inactive	
O=S(=O)(NCC1CCCN(Cc2ccccc2O)C1)c1cccc2cccnc12 (stereo unspecified)	inactive	
CCOC(=O)c1[nH]c2ccccc2c1NC(=O)c1cc(Cl)ccc1Cl	inconclusive [inhibitor, full curve, poor fit]	
Nc1nonc1-n1nnc(C(=O)N/N=C\c2cccc(Cl)c2)c1CN1CCOCC1	inactive	
O=C(CCC(=O)Nc1cccc(Cl)c1)N/N=C/c1cc([N+](=O)[O-])ccc1O	inconclusive [inhibitor, single point]	
Cc1cccc2nc(C(=O)Nc3cccc(C(=O)NC4CC4)c3)cn12	active: 13 µM	
O=C1C(=Cc2ccncc2)CCCc2ccccc21	active: 23.1 µM	
CCn1cc(C(=O)NCCc2ccc(Cl)cc2)c(=O)c2cc(S(=O)(=O)N3CCOCC3)ccc21	inactive	
CCc1cc2c(=O)c(-c3nc4ccccc4n3C)c(C(C)C)oc2c(CN2CCN(C)CC2)c1O	active: 7.31 µM	

Structure (SMILES)	Potency	activity change, negative = growth inhibition
Cc1ccc(NC(=O)COc2ccc3c(c2)OCO3)c(Cl)c1	inactive	
COc1ccc(C(=O)N2CCCC(c3nc(-c4cccs4)no3)C2)cc1 (stereo unspecified)	inconclusive [inhibitor, single point]	
Cc1ccc(/C=C/C(=O)NCCCN2CCN(CCCNC(=O)/C=C/c3ccc(C)cc3)CC2)cc1		inconclusive: -30.2% [inhibitor]
COc1cc(NC(=O)Cn2c(C)cc(C)c(C#N)c2=O)cc(OC)c1	inactive	
Cc1cc(C)c2c(=O)[nH]c(SCc3ccccc3C)nc2n1	inactive	
CCOC(=O)c1[nH]c2ccccc2c1NC(=O)c1ccc(OC)c(OC)c1	inconclusive [inhibitor, single point]	
Cc1c(S(=O)(=O)Nc2ccc(Oc3ccccc3)cc2)c(=O)n(C)c(=O)n1C	inactive	
O=[N+]([O-])c1cc([N+](=O)[O-])c(Oc2c(Cl)cccc2Cl)cc1NN1CCCCC1	inconclusive [inhibitor, single point]	
O=C(N/N=C/c1ccc2ncccc2c1)c1cc(-c2cccs2)nc2ccccc12	active: 2.91 µM	
CC1Cc2ccccc2N1S(=O)(=O)c1cccc2nsnc12 (stereo unspecified)	inconclusive [inhibitor, single point]	
CCc1ccc(OCC(=O)NCC(c2ccc(Cl)cc2)N2CCCCC2)cc1 (stereo unspecified)	inconclusive [inhibitor, single point]	
Cc1ccccc1C(=O)NNC(=O)CCc1ccccc1	inactive	
NCCO	inactive	
Cc1ccc(C)c(CN2C(=O)CSc3ccc(C(=O)NCCN4CCOCC4)cc32)c1	inconclusive [inhibitor, full curve, poor fit]	
COC(=O)Cc1ccc(OC2(C)CCN(Cc3ccc4c(c3)OCCO4)C2)cc1 (stereo unspecified)	inconclusive [inhibitor, single point]	
Cc1cc(N2CCCCCC2)nc(-c2ccccc2O)n1	inconclusive [inhibitor, partial curve, poor fit]	
COc1ccc(-c2onc(C)c2-c2ccccc2)c(O)c1	inconclusive [inhibitor, single point]	
CCCC(C(=O)NC1CCCC1)N(C(=O)Cn1nnc(-c2ccc(C)o2)n1)C1CCCC1 (stereo unspecified)	inconclusive [inhibitor, single point]	
COc1ccc(NC(=O)CSc2ncnc3c2cnn3Cc2ccccc2)cc1		inconclusive: -32.8% [inhibitor]
O=C(CC(c1cccs1)N1Cc2ccccc2C1=O)Nc1ccc(Cl)cc1 (stereo unspecified)	inconclusive [inhibitor, partial curve]	
COc1ccc(NC(=S)Nc2ccccc2)c(OC)c1	inconclusive [inhibitor, partial curve, poor fit]	
C=CCNC(=S)N1CCN(S(=O)(=O)c2ccc(C)cc2)CC1	inactive	
COc1ccc(-n2c(CNc3ccc(C)cc3)nnc2SCc2ccccc2)cc1	inconclusive [inhibitor, single point]	
